The values that follow come from PubChem BioAssay AID1159614 (National Center for Advancing Translational Sciences (NCATS), 2016).

Molecules are shown by their SMILES. Hit rate of the full screen: of about 45,000 compounds, about 65 (0.1%) were called active. Calls come from the whole dose curve; as a rule, active = well fitted activation curve with a large enough effect; inconclusive = small, poorly fitted or top-dose-only effect; inactive = no such curve, though single readings can be large or run the other way. Some of the results follow.

Sequence of UniProt P54803 (P54803 whole entry, looked up): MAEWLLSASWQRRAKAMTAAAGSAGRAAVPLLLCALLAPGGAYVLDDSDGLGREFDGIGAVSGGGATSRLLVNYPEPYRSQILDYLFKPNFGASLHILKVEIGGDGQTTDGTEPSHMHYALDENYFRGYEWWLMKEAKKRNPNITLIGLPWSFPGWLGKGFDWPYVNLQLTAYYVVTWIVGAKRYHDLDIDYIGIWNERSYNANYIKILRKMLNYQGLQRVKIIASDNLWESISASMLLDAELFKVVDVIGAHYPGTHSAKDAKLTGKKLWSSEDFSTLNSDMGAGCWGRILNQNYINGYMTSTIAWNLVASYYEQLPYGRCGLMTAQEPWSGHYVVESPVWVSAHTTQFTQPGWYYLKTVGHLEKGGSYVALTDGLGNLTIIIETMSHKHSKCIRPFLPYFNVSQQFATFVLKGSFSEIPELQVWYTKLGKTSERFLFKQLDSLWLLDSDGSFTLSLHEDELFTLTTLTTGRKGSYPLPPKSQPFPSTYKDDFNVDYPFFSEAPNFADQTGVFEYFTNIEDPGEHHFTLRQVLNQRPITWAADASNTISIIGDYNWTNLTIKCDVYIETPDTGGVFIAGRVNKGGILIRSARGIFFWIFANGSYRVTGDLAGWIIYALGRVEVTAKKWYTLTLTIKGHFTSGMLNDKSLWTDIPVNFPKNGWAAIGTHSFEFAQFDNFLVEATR

This experiment deals with Galactocerebrosidase (Homo sapiens) (UniProt P54803). As to the kind of experiment: A Novel Cell-Based Assay to Identify Small Molecules for B -Galactocerebrosidase. Note: 0% is about no effect; nearly all actives have a fitted effect of over 65% in size. To be noted: 145M-Twi-hGALC-G270D cells (Twitcher mouse brain line with human GALC G270D), HMU-beta-Gal fluorescence, 48 h; series mostly up to 57.5 µM; activation: at the top concentration. Summed up:
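Mutant human GALC (G270D), stably expressed in a Twitcher mouse brain cell line lacking endogenous GALC, is measured in live-treated cells via 6-hexadecanoylamino-4-methylumbelliferyl-β-galactoside hydrolysis (0.1 mM final, pH 5.2) with fluorescent detection.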
As to `COc1ccc(-c2onc(C)c2C)cc1S(=O)(=O)N1CCC(C)CC1`, the “activation” value was inactive: 7.7%.
For `CCc1ccc(NC(=O)c2ccc(CN3C(=O)C(C)=C(c4ccc(C)cc4)S3(=O)=O)cc2)cc1` the value was inactive: -1.57%; for `CCOc1ccc(-c2cc(C(F)(F)F)c(C#N)c(SCC(=O)Nc3ccccc3)n2)cc1`, inactive: -9.12%; for `CC(=O)c1cc(-c2ccccc2)n(CCC(=O)Nc2cc(C)cc(C)c2)c1C`, inactive: -43.3%.
Turning to `COc1ccccc1CCNC(=O)c1cccn1-c1nnc(N2CCCCC2)s1`, the “activation” value is inactive: -22.3%.
As for `O=C(Cn1cc(S(=O)(=O)Cc2ccc(F)cc2)c2ccccc21)NCc1ccccc1`, the “activation” value is inactive: 2.33%.
For the compound `CCOc1ccccc1NC(=O)CSc1cc(=O)n(CC)c2ccccc12`, the “activation” value is inactive: -19.6%.
Consider `Cc1ccc(C)c(N2CCN(C(=O)c3c4c(nc5ccccc35)C(=O)N(C3CCCCC3)C4)CC2)c1`, for which the “activation” value is inactive: -12.2%.
In the case of `COc1ccc(-c2nc(CNS(=O)(=O)c3ccc(F)cc3)cs2)cc1`, the “activation” value was inactive: -9.55%.
For `COc1ccccc1N1CCN(C(=O)c2c3c(nc4ccccc24)C(=O)N(C2CCCCC2)C3)CC1` the value was inactive: -7.08%; for `Cc1cccc(NC(=O)CSc2nc(C)c(Cc3ccccc3)c(=O)[nH]2)c1`, inactive: -14.7%.
With `C[C@@H]1CN(c2c(F)c(N)c3c(=O)c(C(=O)O)cn(C4CC4)c3c2F)C[C@H](C)N1`, the “activation” value is inactive: -9.9% [at 23.8 µM].
For `CCCNC(=O)CN1C(=O)c2cccnc2Sc2ccccc21` the value was inactive: -8.42%; for `COc1cc(OC)cc(-n2c(=O)c3ccccc3n(CC(=O)NCCc3ccc(OC)c(OC)c3)c2=O)c1`, inactive: -6.56%; for `COc1ccc2cc(CNc3ccc(OC)c(OC)c3)c(=O)n(CC(=O)Nc3ccc(C)cc3)c2c1`, inactive: -14.1%.
With `O=C(CSc1nc2c(c(=O)[nH]1)CN(Cc1ccc3c(c1)OCO3)CC2)Nc1ccc(F)cc1`, the “activation” value was inactive: -7.01%.
Under `O=C(N/N=C/c1ccccc1O)c1ccncc1` stands inactive: -7.85%.
Turning to `CCCOc1cccc(C(=O)Nc2ccc(-c3nc4ccccc4o3)cc2)c1`, the “activation” value is inactive: -19.1%.
As for `COc1ccccc1N1CCN(CCCNC(=O)Cn2ncc3c([nH]c4ccccc43)c2=O)CC1`, the “activation” value was inactive: -12.1%.
Under `Cc1ccc2ncc3c(-c4ccccc4)nn(CC(=O)NC4CCCCC4)c3c2c1` stands inactive: -7.23%; under `O=C(CC1NCCNC1=O)Nc1cccc(F)c1` (stereo not given), inactive: -10.7%.
As to `COc1ccc(NC(=O)CSC2=Nc3ccccc3C3=NC(CCC(=O)NCc4ccco4)C(=O)N23)cc1` (stereo not given), the “activation” value is inactive: -9.18%.
Under `Cc1ccc(NC(=O)Cn2c(=O)oc3cc(S(=O)(=O)N4CCCC4)ccc32)cc1F` stands inactive: -4.63%; under `Cc1nc2ccc(S(=O)(=O)CCC(=O)Nc3ccccc3C)cc2s1`, inactive: 7.46%; under `CCOC(=O)c1ccc(NC(=O)C2CCCN(c3ncnc4onc(C)c34)C2)cc1` (stereo not given), inactive: -7.75%.
On to `COc1cccc(C2C(C(=O)Nc3cccnc3)=C(C)Nc3nc(SCc4ccccc4)nn32)c1` (stereo not given), for which the “activation” value is inactive: -13.5%.
Regarding `CC(=O)c1cccc(NC(=O)C2=CC(c3ccco3)=NS(=O)(=O)N2C)c1`, the “activation” value is inactive: -11%.
Under `COc1ccc(Nc2nnc(-c3ccc(C)c(S(N)(=O)=O)c3)c3ccccc23)cc1` stands inactive: -10.2%; under `CCc1ccc2nc(N3CCN(C(=O)c4ccco4)CC3)sc2c1`, inactive: -6.46%.
On to `COc1ccc(CCNc2oc(COc3ccc(Cl)cc3)nc2C#N)cc1OC`, for which the “activation” value is inactive: -18.4%.
Consider `COc1ccccc1CNC(=O)C(=O)NCC(c1ccc2c(c1)OCO2)N1CCOCC1` (stereo not given), for which the “activation” value is inactive: -12.7%.
`CCc1ccc(CN2CCc3nc(Nc4ccc5c(c4)OCCO5)ncc3C2)cc1`: the “activation” value is inactive: -1.94%.
Under `CCc1ccc(-c2nc(SCC(=O)NCCOC)c(-c3ccc(C)cc3)[nH]2)cc1` stands inactive: -14.5%; under `CCc1ccc(CNc2nc3nc(C)c(Cc4ccccc4)c(=O)n3[nH]2)cc1`, inactive: -20.8%; under `Cc1cccc2sc(N3CCN(C(=O)c4ccco4)CC3)nc12`, inactive: -11.3%.
For `Cc1cccc(S(=O)(=O)c2cn(Cc3ccccc3)c3cc(N4CCCC(C)C4)c(F)cc3c2=O)c1` (stereo not given), the “activation” value was inactive: -11.3%.
For `CCc1cccc(C)c1NC(=O)c1cnn(-c2ccc(F)cc2)c1-n1cccc1`, the “activation” value is inactive: -23.6%.
As for `CSc1nn(Cc2cccc(F)c2)c(N(C(C)=O)C(C)=O)c1S(=O)(=O)c1ccccc1`, the “activation” value is inactive: -6.3%.
Regarding `COc1ccc(OC)c(CNCc2c(C(=O)O)n(Cc3ccccc3)c3cc(OC)ccc23)c1`, the “activation” value was inactive: -5.64%.
On to `O=C(CN1N=C(c2ccc(Cl)cc2)CCC1=O)NCc1ccc(F)cc1`, for which the “activation” value is inactive: -11.7%.
For the compound `O=C1Nc2ccccc2Oc2cc(Oc3ccc(Cl)cc3)ccc21`, the “activation” value was inactive: -26.5%.
With `CCC(=O)N1CCc2cc(S(=O)(=O)NC(CC(C)C)C(=O)Nc3ccc(CC)cc3)ccc21` (stereo not given), the “activation” value was inactive: 1.37%.
On to `Clc1ccc(CSc2nc(NCCc3ccccc3)c3ccccc3n2)cc1`, for which the “activation” value was inactive: 4.56%.
For `Cc1cc(NC(=O)C2CCCN(S(=O)(=O)c3cccc4nonc34)C2)ccc1Br` (stereo not given), the “activation” value is inactive: -15.8%.
In the case of `CCOc1ccccc1CNC(=O)CCCN1C(=O)CCn2nc(-c3cccn3C)cc21`, the “activation” value was inactive: -2.77%.
`Cc1ccc(-c2cc(C(F)(F)F)n3nc(C(=O)Nc4ccc(C#N)cc4)cc3n2)cc1`: the “activation” value was inactive: -16.8%.
Regarding `CCOC(=O)c1c(C)[nH]c(C)c1S(=O)(=O)N1CCCC(C(=O)N2CCN(c3cc(C)ccc3C)CC2)C1` (stereo not given), the “activation” value was inactive: -13.2%.
Consider `Cc1ccc(CNC(=O)C2CCN(S(=O)(=O)c3ccc4c(c3)oc(=O)n4C)CC2)cc1`, for which the “activation” value was inactive: -18.1%.
As to `CCc1ccc(-n2nc(C)c3c(C)cc(=O)n(CC(=O)Nc4ccc(OC)c(OC)c4)c32)cc1`, the “activation” value is inactive: -10.8%.
For the compound `Cc1ccc(C)c(CN2C(=O)c3ccccc3S(=O)(=O)c3ccc(C(=O)N4CCOCC4)cc32)c1`, the “activation” value was inactive: 14.8%.
For `CCOc1ccc(CNC(=O)Cn2ncc3c(=O)oc4ccc(C)cc4c32)cc1` the value was inactive: -14%; for `COc1ccc(Cl)cc1N(C)C(=O)Cn1cnc2sc(C)c(S(=O)(=O)N3CCN(c4ncccn4)CC3)c2c1=O`, inactive: -9.9%; for `CCC(CC)C(=O)Nc1ccccc1C(=O)OCc1cc(=O)n2nc(C3CCCCC3)sc2n1`, inactive: -5.49%.
Under `O=S(=O)(c1cccs1)N1CCN(c2ccc(Cl)cc2)CC1` stands inactive: -29%; under `COc1ccc(Cl)cc1NC(=O)[C@H]1O[C@@H]2OC(C)(C)O[C@@H]2[C@H]2OC(C)(C)O[C@H]21`, inactive: -13.2%; under `COc1ccc(C(=O)N2CCCCC2CCN2CCCCC2)cc1` (stereo not given), inactive: -9.81%.
As for `Cc1cc(F)ccc1NC(=O)C1CCN(S(=O)(=O)c2ccc3c(c2)CCCC(=O)N3)CC1`, the “activation” value was inactive: -3.19%.
Consider `Cc1cccc(C(=O)Nc2ccc(C(=O)OCc3cc(=O)n4c(C)csc4n3)cc2)c1`, for which the “activation” value is inactive: -33.6%.
As to `CCCCOc1cccc(C(=O)N(Cc2ccc(Br)o2)C2CCS(=O)(=O)C2)c1` (stereo not given), the “activation” value was inactive: -16%.
Turning to `NC(=O)CSc1oc(-c2cccs2)nc1S(=O)(=O)c1ccc(Br)cc1`, the “activation” value is inactive: -14.1%.
